Assay results reported in the supplement of paper PMC8183993.
Values joined by “and” are separate entries in the source; they are usually repeats but may differ in a detail not shown here. Equal values may be shown once. Where a name gives a salt, the structure may show the parent alone. ± gives the standard deviation of the averaged measurements. Over roughly 3,100 compounds, “mean cytoplasmic OPP incorporation (global translation) relative to DMSO” has its median near 100; the lowest 2% begin near 56. Some of the results follow.

tested on: U2OS; assay: mean cytoplasmic OPP incorporation (global translation) relative to DMSO (% of DMSO); higher = more protein synthesis; settings: 10 µM; 24 h
Protocol: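 Primary image-based screen in U2OS cells: compounds at 10 uM for 24 h, then a 1 h o-propargyl-puromycin (OPP) pulse, click labelling, and high-throughput microscopy. Mean cytoplasmic OPP intensity and nuclei count were normalised to DMSO wells within each plate (DMSO = 100) and averaged over triplicate plates.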

Row | Structure (SMILES) | mean cytoplasmic OPP incorporation
1 | c1ccc(CNc2ncnc3nc[nH]c23)cc1 [Aminopurine, 6-benzyl] | 95.9
2 | CCN[C@@H]1C[C@H](N)[C@@H](O[C@H]2OC(CN)=CC[C@H]2N)[C@H](O)[C@H]1O[C@H]1OC[C@](C)(O)[C@H](NC)[C@H]1O [Netilmicin Sulfate] | 101
3 | CC(C)(O)c1ccccc1CC[C@@H](SCC1(CC(=O)O)CC1)c1cccc(/C=C/c2ccc3ccc(Cl)cc3n2)c1 [Montelukast] | 110
4 | O=C1NC(=O)C(c2ccccc2)(c2ccccc2)N1 [Phenytoin] | 109
5 | O=C1NC(=O)C(=Cc2ccc(-c3ccc(F)cc3)o2)S1 (stereo in doubt) | 108.23 ± 0.0099
6 | CN1Cc2c(N)cccc2C(c2ccccc2)C1 (centres undefined) [Nomifensine maleate] | 94.2
7 | CN(C)C/C=C/C(=O)Nc1cc2c(Nc3ccc(F)c(Cl)c3)ncnc2cc1O[C@H]1CCOC1 [Afatinib (BIBW2992)] | 97
8 | OC[C@@H](O)[C@@H](O)[C@@H](O)CO [Ribitol (Adonitol)] | 101
9 | O=C(Nc1ccccc1)Nc1ccc(-c2ccc(C(=O)[C@@H]3CCC[C@H]3C(=O)O)cc2)cc1 | 101
10 | COc1ccccc1OCC(O)COC(N)=O (centres undefined) [Methocarbamol] | 101
11 | Cc1cc(N)c2ccccc2[n+]1CCCCCCCCCC[n+]1c(C)cc(N)c2ccccc21 [Dequalinium dichloride] | 106
12 | Nc1ccn([C@@H]2CS[C@H](CO)O2)c(=O)n1 [Lamivudine] | 102
13 | COC(=O)Nc1nc2cc([S+]([O-])c3ccccc3)ccc2[nH]1 (centres undefined) [Oxfendazole] | 112
14 | COC(=O)Nc1nc2cc([S+]([O-])c3ccccc3)ccc2[nH]1 (centres undefined) [Oxfendazol] | 90.8
15 | NC1CCN(c2nc3c(cc2F)c(=O)c(C(=O)O)cn3-c2ccc(F)cc2F)C1 (centres undefined) [Tosufloxacin hydrochloride] | 104
16 | Cn1ccc2cc3c(cc21)CCN3C(=O)Nc1cccnc1 | 102
17 | N#Cc1c(NC(=O)c2cccc3ccccc23)sc2c1CCCC2 [JNK inhibitor IX] | 84.7
18 | C=CC(=O)Nc1cccc(Nc2nc(Nc3ccc(OCCOC)cc3)ncc2F)c1 | 81.3
19 | CCC(=O)Nc1cccc(Oc2nc(Nc3ccc(N4CCN(C)CC4)cc3OC)ncc2Cl)c1 | 110
20 | Clc1cccc2c1CN(C1=NCCN1)C2 | 97.2
21 | C[C@@H]1COC(Nc2ccc3ncnc(Nc4ccc(OCc5nccs5)c(Cl)c4)c3c2)=N1 | 112 ± 6.4
22 | C=CCOC(Cn1ccnc1)c1ccc(Cl)cc1Cl (centres undefined) [Enilconazole] | 101
23 | C#C[C@]1(O)CC[C@H]2[C@@H]3CCC4=CC(=O)CC[C@@H]4[C@H]3CC[C@@]21CC [Norgestrel-(-)-D] | 109
24 | C#C[C@]1(O)CC[C@H]2[C@@H]3CCC4=CC(=O)CC[C@@H]4[C@H]3CC[C@@]21CC [Levonorgestrel (Levonelle)] | 114
25 | N=C(N)NCCN1CCCCCCC1 [Guanethidine sulfate] | 103

Row | Structure (SMILES) | mean cytoplasmic OPP incorporation
26 | N#C/C(=C\c1ccc(O)c(O)c1)C(=O)NCc1ccccc1 | 99.7 and 93.5
27 | CC1(C)[C@@H](OC(=O)CCC(=O)O)CC[C@]2(C)[C@H]3C(=O)C=C4[C@@H]5C[C@@](C)(C(=O)O)CC[C@]5(C)CC[C@@]4(C)[C@]3(C)CC[C@@H]12 [Carbenoxolone disodium salt] | 104
28 | CC(CN(C)C)CN1c2ccccc2Sc2ccccc21 (centres undefined) [Trimeprazine tartrate] | 106
29 | CCCOc1ccc(C(=O)OCCN(CC)CC)cc1N [Proparacaine hydrochloride] | 102
30 | CC(=O)N[C@@H](CSCC=C(C)CCC=C(C)CCC=C(C)C)C(=O)O [Acetyl-S-farnesyl-L-cysteine] | 123
31 | COC(=O)Nc1ccc2[nH]cc(CCNC(C)=O)c2c1 | 98.8
32 | CCCCCCCCCCCCCCCC(=O)C1=C(O)[C@@H](CO)OC1=O | 104
33 | CN1C2CCC1CC(OC(=O)C(O)c1ccccc1)C2 (centres undefined) [Homatropine Bromide] | 91.7
34 | Cc1cc(C)c(S(=O)(=O)Nc2cccc(C(F)(F)F)c2)c(C)c1 | 96.3
35 | C[C@]1(Cn2ccnn2)[C@H](C(=O)O)N2C(=O)C[C@H]2S1(=O)=O [Tazobactam] | 99 ± 11
36 | CCN(CC)CCCCNc1ncc2cc(-c3cc(OC)cc(OC)c3)c(NC(=O)NC(C)(C)C)nc2n1 | 111 ± 7.3
37 | CC(CN(C)C)C(C)(O)Cc1ccc(Cl)cc1 (centres undefined) [Clobutinol hydrochloride] | 101
38 | CC[C@@H](CO)NCCN[C@@H](CC)CO [Ethambutol HCl] | 98.3
39 | CC[C@@H](CO)NCCN[C@@H](CC)CO [Ethambutol dihydrochloride] | 99.6
40 | O=C(NCCN1CCCCC1)c1ccc(I)cc1 [N-[2-(Piperidinylamino)ethyl]-4-iodobenzamide] | 100
41 | CC1=C(/C=C/C(=C/C=C/C(C)=C/C(=O)O)c2ccc(C)cc2)C(C)(C)CCC1 | 105
42 | CC(C)C[C@H](NC(=O)CNC(=O)c1cc(Cl)ccc1Cl)B1OC(=O)C(CC(=O)O)(CC(=O)O)O1 | 120
43 | CC(=O)OCC(=O)[C@@]1(OC(C)=O)[C@@H](C)C[C@H]2[C@@H]3C[C@H](F)C4=CC(=O)C=C[C@]4(C)[C@@]3(F)[C@@H](O)C[C@@]21C [Diflorasone Diacetate] | 101
44 | CC1=C(/C=C/C(C)=C\C=C\C(C)=C\C(=O)O)C(C)(C)CCC1 [9-cis Retinoic acid] | 96.4
45 | CNC(=O)c1ccc(C)c(-n2c(C)cc(OCc3ccc(F)cc3F)c(Br)c2=O)c1 | 99.2
46 | NC(=O)c1cccc(N)c1 [3-Aminobenzamide] | 103
47 | Cc1ccc(-n2nc(C(C)(C)C)cc2NC(=O)Nc2ccc(OCCN3CCOCC3)c3ccccc23)cc1 [BIRB 796 (Doramapimod)] | 105
48 | C=CCSCC1Nc2cc(Cl)c(S(N)(=O)=O)cc2S(=O)(=O)N1 (centres undefined) [Althiazide] | 85.6
49 | CC(=O)N(CC(O)CN(C(C)=O)c1c(I)c(C(=O)NCC(O)CO)c(I)c(C(=O)NCC(O)CO)c1I)c1c(I)c(C(=O)NCC(O)CO)c(I)c(C(=O)NCC(O)CO)c1I (centres undefined) [Iodixanol] | 102
